Measured values published in paper PMC12040169 (PLOS Biology, 2025).
The list shows a part of the results. Peptide text beside a SMILES is read from it. * marks the point of attachment. Bz = O=C(c1ccccc1)*

Each molecule was assayed on T1, C. trachomatis L2/434/Bu expressing GFP (CTL2-GFP). Conditions: total inclusion area; 28.5 h, 10 µM; inhibitor.
T1 construct: L2/434/Bu GFP intracellular growth in HeLa cells
Parameters: species or system HeLa; C. trachomatis total inclusion area by high-content imaging, normalised to DMSO
In short: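 Post-fluorescence-read fixation, DNA staining with Hoechst and high-content imaging; GFP inclusion area and number per well, and nuclei counts, used as proxies for bacterial growth and host viability.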
In the case of `Cc1cccc(C)c1OCC(O)CNCCc1ccccc1` (centres unmarked) [CBK003072], the “% of control remaining” value is reported as 80.6179. With `COc1ccc(-c2cc(C(=O)NCC(O)CO)cnc2-c2ccc(Cl)cc2)cn1` (centres unmarked) [CBK036645] the “% of control remaining” value was 152.781. In the case of `C[C@H]1CC[C@H](C(=O)N2CCC[C@H]2C(=O)O)CC1` [CBK028320], the “% of control remaining” value is reported as 45.0091. `CS(=O)(=O)N1CCN(c2ccccc2NC(=O)Cc2ccc(Cl)cc2)CC1` [CBK267605] was tested, and the “% of control remaining” value was 112.571. In the case of `N=C(N)NCCCc1c[nH]c2ccccc12` [CBK012139G], the “% of control remaining” value is reported as 58.172. For `Cc1cccc(NC(=O)C2CC(=O)NC(Nc3nc4ccccc4s3)=N2)c1` (centres unmarked) [CBK264362], the “% of control remaining” value was 96.6574. For `O=C(NC(Cc1ccccc1)C(=O)N1CCCC1C(=O)O)c1ccccc1` (stereo not drawn) [CBK264058] (Bz-Phe-Pro-OH; configuration not given here), the “% of control remaining” value was 99.2343. `FC(F)(F)c1ccnc(Sc2nc[nH]n2)n1` [CBK093806] was tested, and the “% of control remaining” value was 103.298. `CS(=O)(=O)c1ccc(CNC(=O)c2cc(-c3ccc(C(=O)N4CCOCC4)cc3)cnc2N)cc1` [CBK158599] was tested, and the “% of control remaining” value was 110.983. `O=C(CCn1ccnc1)NCC1Cc2ccccc2O1` (centres unmarked) [CBK283062] was tested, and the “% of control remaining” value was 94.3922. In the case of `CCn1ncc(S(=O)(=O)N2CCC(c3cccc(Cc4ccccc4C)n3)CC2)c1C` [CBK286116], the “% of control remaining” value is reported as 77.817. In the case of `O=C(O)CCc1ccc(-c2ccc(F)cc2)n1-c1cc(Cl)ccc1Cl` [CBK264754], the “% of control remaining” value is reported as 93.2702. For `Cc1ccc(-n2c(SCC(=O)NCc3ccccc3)nnc2-c2ccc(Cl)cc2)cc1C` [CBK265909], the “% of control remaining” value was 142.442. `O=C1COc2ccccc2C/C=C/CC2(CCCN(C(=O)CN3CSCC3=O)C2)CN1` (centres unmarked) [CBK292035] was tested, and the “% of control remaining” value was 104.195. With `O=C(NC1CC1)c1cnoc1-c1ccccc1` [CBK154935] the “% of control remaining” value was 106.182. `O=C1CN(C(=O)NCCOc2ccccc2)CCN1` [CBK155871] was tested, and the “% of control remaining” value was 80.6227. For `COCc1cc(CN2CCN(C)CC2)c(O)c2ncccc12` [CBK263546], the “% of control remaining” value was 73.5023. In the case of `O=C(CCc1nc2ccccc2nc1O)OCc1cccc([N+](=O)[O-])c1` [CBK266804], the “% of control remaining” value is reported as 107.075. In the case of `S=C(Nc1ccc(Nc2ccccc2)cc1)N1CCN(C/C=C/c2ccccc2)CC1` [CBK266149], the “% of control remaining” value is reported as 96.8463. For `Cc1cc(C)c(S(=O)(=O)NC(CC(=O)O)c2ccccc2)cc1C` (centres unmarked) [CBK267081], the “% of control remaining” value was 120.597. In the case of `COc1ccccc1-c1cc2c(=O)n(C)c(-c3ccc(CNC(C)C)cc3)cc2o1` [CBK051699C], the “% of control remaining” value is reported as 39.2296. With `COC(=O)c1sc(NC(=S)Nc2ccn(C)n2)c(C(=O)OC)c1C` [CBK267078] the “% of control remaining” value was 128.5. With `CCOc1ccc(S(=O)(=O)Nc2ccc(O)c(C(=O)O)c2)cc1` [CBK299810] the “% of control remaining” value was 99.1792. In the case of `Cc1[nH]c2ccccc2c1CCNC(=O)N(Cc1cnn(C)c1)C1CC1` [CBK306661], the “% of control remaining” value is reported as 69.2932. In the case of `CC(=O)NCCOc1nc(N(C)C)nc(N2CCOCC2)n1` [CBK266651], the “% of control remaining” value is reported as 126.335. In the case of `COc1ccc(N(CC(=O)Nc2cccnc2)S(=O)(=O)c2ccc(C)cc2)cc1` [CBK264033], the “% of control remaining” value is reported as 100.345. With `COc1ccc(C(=O)N2CCCN(Cc3ccc(C#N)cc3)CC2)cc1` [CBK305374] the “% of control remaining” value was 36.0747. In the case of `COCCOc1ccc(C(=O)N2CCN(c3ccccc3)CC2)cc1` [CBK304626], the “% of control remaining” value is reported as 97.7593. `Cc1cccc(NC(=O)CN2C(=O)S/C(=C\c3cc(C)n(-c4ccc(N(C)C)cc4)c3C)C2=O)c1` [CBK264586] was tested, and the “% of control remaining” value was 114.133. With `Cn1c(=O)cc(NCCCCCC(=O)O)[nH]c1=O` [CBK286574] the “% of control remaining” value was 98.1108. For `CN(Cc1nccn1C)c1nccc(N2CCN[C@H]3CS(=O)(=O)C[C@H]32)n1` [CBK307394], the “% of control remaining” value was 76.8123. For `CC1CC(=O)C2=C(C1)NN=C(c1cccc(C(F)(F)F)c1)C2` (centres unmarked) [CBK020138], the “% of control remaining” value was 98.2888. `Cn1c(SCC(=O)c2ccc([N+](=O)[O-])cc2)nnc1-c1ccc(N)cc1` [CBK264843] was tested, and the “% of control remaining” value was 78.013. In the case of `Cc1ncc([N+](=O)[O-])n1CCSc1nnc(SCc2ccccc2)s1` [CBK264751], the “% of control remaining” value is reported as 107.66. In the case of `COC(=O)c1ccc2c(c1)C(=O)N(c1ccc(C(=O)OCC(C)C)cc1)C2=O` [CBK156802], the “% of control remaining” value is reported as 91.9641. For `O=C(NC1Cc2ccccc2C1)c1nccc2ccccc12` [CBK200356], the “% of control remaining” value was 109.522. In the case of `O=C1NN=C(c2ccccc2)CC1c1c[nH]c2ccccc12` (centres unmarked) [CBK288235], the “% of control remaining” value is reported as 88.4159. `CC(=O)N1CCC(C(=O)NC(c2ccc3c(c2)OCO3)c2cccs2)CC1` (centres unmarked) [CBK059881] was tested, and the “% of control remaining” value was 108.39. `O=C(O)COc1ccccc1/C=N/n1c(S)nnc1-c1ccncc1` [CBK265253] was tested, and the “% of control remaining” value was 119.145. `O=C1CC(c2cccnc2)=NN1c1ccc(Cl)cc1Cl` [CBK067764] was tested, and the “% of control remaining” value was 103.553. `CCn1cncc1CN(CCCn1ccnc1)Cc1ccc(C)s1` [CBK283104] was tested, and the “% of control remaining” value was 88.9486. `COCCNc1nc(-c2ccc3ccccc3c2)cn2ccnc12` [CBK066138] was tested, and the “% of control remaining” value was 129.232. With `Cn1cc(CN2CCNC(=O)C2c2ccccc2C(F)(F)F)cn1` (centres unmarked) [CBK306407] the “% of control remaining” value was 62.4992. In the case of `O=C(NCCF)c1cn2cc(-c3cccs3)n(CC3CC3)c(=O)c2n1` [CBK307367], the “% of control remaining” value is reported as 44.9513. For `Cc1ccc(-c2ccc(N3CCN(C)CC3)nc2)cc1C` [CBK036937], the “% of control remaining” value was 104.773. With `Cc1nc2ccc(NC(=O)c3cccc(C(F)(F)F)c3)cc2nc1C` [CBK270221] the “% of control remaining” value was 86.9042. `CCN1CCN(CC(=O)N/N=C/c2ccc(F)cc2)CC1` [CBK261615] was tested, and the “% of control remaining” value was 86.6152. For `O=C(c1ccccn1)N1C[C@@H]2OCC(=O)N(Cc3ccccc3)[C@@H]2C1` [CBK289698], the “% of control remaining” value was 93.3972. In the case of `CCCS(=O)(=O)NC1CCN(c2nc(C(F)(F)F)nc3ccsc23)CC1` [CBK304591], the “% of control remaining” value is reported as 44.2966. With `CC(=O)Nc1cccc(Oc2nccnc2-c2cnn(Cc3ccccc3)c2)c1` [CBK107096] the “% of control remaining” value was 104.218. `OCCNCc1cc(Br)ccc1OCc1ccc(F)cc1` [CBK266421C] was tested, and the “% of control remaining” value was 102.143. `O=C(Nc1ccncc1)c1cc2cc(OC(F)(F)F)ccc2[nH]1` [CBK107369] was tested, and the “% of control remaining” value was 106.602. In the case of `O=C(NCCC1SC(NC2CCCCCC2)=NC1=O)Nc1ccc(C(F)(F)F)cc1Cl` (centres unmarked) [CBK067682], the “% of control remaining” value is reported as 114.902. For `CC(C)c1cc(C(=O)NC2CCN(c3ncccc3C#N)CC2)n(C)n1` [CBK306975], the “% of control remaining” value was 58.4744. In the case of `Cc1c(C(=O)Nc2cccnc2)nnn1-c1cccc(C(F)(F)F)c1` [CBK107389], the “% of control remaining” value is reported as 101.26. For `Cn1nccc1C(=O)N1CCN(c2ncccn2)CC1` [CBK288240], the “% of control remaining” value was 113.582. With `CC1CCCCN1CCCNc1cc(NS(=O)(=O)c2cn(C)cn2)cc2ccoc12` (centres unmarked) [CBK067940C] the “% of control remaining” value was 48.3351. `C[C@@H](c1ccccc1)n1c(=O)[nH]c2ncc(-c3cccc4ncccc34)nc21` [CBK064394] was tested, and the “% of control remaining” value was 84.2317. With `CC1(C)CC(=O)C(=CNCCC(c2ccccc2)c2ccccc2)C(=O)C1` [CBK262057] the “% of control remaining” value was 87.6214. In the case of `COc1ccc(S(=O)(=O)N(C)CC(=O)NCc2cccnc2)cc1Cl` [CBK268089], the “% of control remaining” value is reported as 89.739. For `CC(C)(C)C(=O)N1CCC(c2nc3ccccc3cc2N)CC1` [CBK285039], the “% of control remaining” value was 106.585. In the case of `Cn1nccc1CNCc1cc(Br)ccc1Cl` [CBK305100], the “% of control remaining” value is reported as 67.2068. With `O=C(Nc1c(F)cc(F)cc1OC1CCNCC1)c1cccnc1` [CBK050275T] the “% of control remaining” value was 92.6819. `Cc1cc(C(F)(F)F)nc(NCc2ccco2)n1` [CBK269555] was tested, and the “% of control remaining” value was 93.7716. In the case of `Cc1c(NC(=O)CSc2nnc3c4ccccc4n(C(C)C)c3n2)c(=O)n(-c2ccccc2)n1C` [CBK263916], the “% of control remaining” value is reported as 122.298. With `COCCN1CCOC2(CCN(C(=O)c3ccc4ccccc4c3)CC2)C1c1ccccc1O` (centres unmarked) [CBK116232] the “% of control remaining” value was 88.2586. For `CO[C@H]1CNC[C@@H]1NC(=O)c1cccc2c1NCCC2` [CBK307421], the “% of control remaining” value was 63.5113. With `O=S(=O)(c1ccc(Oc2ccc(S(=O)(=O)N3CCCCCC3)cc2)cc1)N1CCCCCC1` [CBK261729] the “% of control remaining” value was 95.7662. For `C(=C\c1ccccc1)/CN1CCN(CCCc2ccccc2)CC1` [CBK261897], the “% of control remaining” value was 99.5923. With `CC(CNC(=O)Cn1nc(C(F)(F)F)c2c1CCC2)N1CCCC1` (centres unmarked) [CBK282212] the “% of control remaining” value was 108.229. With `CN(C)C1c2cccc3cccc(c23)C1NS(C)(=O)=O` (centres unmarked) [CBK265851] the “% of control remaining” value was 122.864. With `Cc1nc(C(F)(F)F)ccc1C(=O)N1C=CC(C(F)(F)F)=NCC1` [CBK057187] the “% of control remaining” value was 18.2018. In the case of `CCn1c(CNC(=O)C(C)Cn2cc(Cl)cn2)nc2ccccc21` (centres unmarked) [CBK281392], the “% of control remaining” value is reported as 88.5102. With `Cc1cnn(CCNc2cc(C(C)C)nc3ccnn23)c1` [CBK306792] the “% of control remaining” value was 62.6209. `COc1ccc(-c2cncc(NCc3ccncc3)n2)cc1` [CBK065394] was tested, and the “% of control remaining” value was 70.7647. For `COc1ccnc(Cn2ncc(N3CCCC3)cc2=O)c1` [CBK304379], the “% of control remaining” value was 98.3139. In the case of `COc1ccc(C2(C(=O)NCCc3c[nH]cn3)CC2)cc1` [CBK149834], the “% of control remaining” value is reported as 94.2202. For `C=CCN(C)C(=O)[C@H]1C[C@@H](O)[C@H](O)[C@@H]2N=C(Nc3cc(C)cc(C)c3)S[C@@H]21` [CBK288948], the “% of control remaining” value was 107.07. For `Cc1ccc(S(N)(=O)=O)cc1NC(=O)Cc1ccccc1` [CBK024413], the “% of control remaining” value was 101.488. `O=C(CCc1nc2ccccc2[nH]1)Nc1ccc(F)cc1` [CBK267238] was tested, and the “% of control remaining” value was 87.3568.
